# Measured values as given in PubChem BioAssay AID1345083 (National Center for Advancing Translational Sciences (NCATS), 2018).
# Screen size: about 94,000 compounds; about 6,200 (6.6%) were called active. The inconclusive results got no clear call from the source; some entries with a clear call stand among them for comparison. Calls come from the whole dose curve; as a rule, active = well fitted inhibition curve with a large enough effect; inconclusive = small, poorly fitted or top-dose-only effect; inactive = flat fitted curve, though single readings scatter. Potencies beside an inconclusive call are fits to weak or partial responses and may not hold up.
# Assay: Cytotoxic Profiling in HEK 293 Cell Line of Diverse Libraries Using Quantitative High-Throughput Screening; note: nearly all actives have a fitted effect of over 60% in size
# Conditions: HEK 293 viability, ATP luminescence (CellTiter-Glo), 48-72 h; series mostly up to 115 µM
# Procedure, shortened: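 HEK 293 cells seeded at 250 cells/well were exposed to compound for 48 or 72 hr at 37 degree Celsius. Viability taken as ATP content by CellTiter-Glo luminescence.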
# Potency is the fitted concentration of half-maximal effect; tags give direction and shape of the fitted curve.
row,Compound,Potency
1,Cc1cnc(-c2ccccc2)n1C1CCCNC1 (stereo not given),inactive
2,O=C(NCc1cccc(Cl)c1)C1CN(C2CCCCC2)C(=O)N1 (stereo not given),"inconclusive: 112 µM [inhibitor, partial curve, poor fit]"
3,O=C(Cn1cccc1-c1nc(-c2ccccc2)no1)NCc1ccc(F)cc1F,"inconclusive: 79.4 µM [inhibitor, partial curve, poor fit]"
4,O=C1NC2(Cc3ccccc31)CN(Cc1c[nH]c3ccccc13)C2,"inconclusive: 112 µM [inhibitor, partial curve]"
5,Cc1ccc(CN2CC[C@H](c3nc4ccc(C(F)(F)F)cc4[nH]3)C2)cc1,active: 39.8 µM
6,COc1cccc(CNC(=O)C2CCN(c3nccc(Nc4ccccc4Cl)n3)CC2)c1,"inconclusive: 39.8 µM [inhibitor, full curve, poor fit]"
7,O=C1CC2(CCN(C(=O)C3CCN(C(=O)C4CC4)CC3)CC2)Oc2ccccc2N1,inactive
8,Cc1ccc(C(=O)NC2CCN(c3ccc(=O)n(C)n3)CC2)cn1,inactive
9,O=C(NC1CCN(Cc2cccc(-c3cccs3)c2)CC1)c1ccccc1Cl,"inconclusive: 50.1 µM [inhibitor, partial curve, poor fit]"
10,CCCN1CCC(N2CCC3(CC2)CC2C(=O)N(CC)C(=O)N2C3)CC1 (stereo not given),inactive
11,COCCCNc1nc(-c2c(C)noc2C)cc2cc(C(C)C)oc12,active: 89.1 µM
12,Cn1nccc1CN1CCc2nc(C3CC3)nc(-c3ccc(O)cc3)c2C1,inactive
13,O=C(NCc1cccc(F)c1)c1c(OCC2CC2)cc(=O)n2c1CCCCC2,inactive
14,O=C(Nc1ccccc1)c1nc2c(o1)CCN(Cc1ccccn1)CC2,"inconclusive: 89.1 µM [inhibitor, partial curve]"
15,CCOc1ccc(C(=O)NC2CCN(c3cc(-c4ccccc4)[nH]n3)CC2)cc1,inactive
16,CCc1cccc(NC(=O)Cn2c(C)ccc(NS(=O)(=O)c3ccc(C)cc3)c2=O)c1,inactive
17,O=C(Cc1cccs1)Nc1ccc2c(N3CCCCC3)ncnc2c1,"inconclusive: 39.8 µM [inhibitor, partial curve, poor fit]"
18,O=C1NCc2ccccc2CC12CCN(Cc1cc(F)ccc1O)CC2,"inconclusive: 56.2 µM [inhibitor, partial curve, poor fit]"
19,O=C(NCc1ccccc1)C1CCN(c2nccc(Nc3ccccc3Cl)n2)CC1,"inconclusive: 56.2 µM [inhibitor, partial curve, poor fit]"
20,CN1CCCCCC(O)c2cc(C(=O)Nc3cccc(OC(F)(F)F)c3)ccc21 (stereo not given),active: 25.1 µM
21,O=c1c2nc(OCc3ccc(-n4cccn4)cc3)ccc2ncn1Cc1ccccc1,active: 28.2 µM
22,Nc1ccc(-c2cccc(CN3CCCC3)c2)cc1,inactive
23,O=C(Cc1ccc(C(F)(F)F)cc1)NC1CCN(Cc2ccc(-c3ccsc3)cc2)C1 (stereo not given),active: 35.5 µM

row,Compound,Potency
1,O=C(c1n[nH]c2c1CCCCCC2)N1CCc2c(nc3cc(-c4ccccc4)[nH]n3c2=O)C1,inactive
2,O=C1Nc2ccccc2CC12CCCCN2[S+](=O)([O-])c1cccc(C(F)(F)F)c1 (stereo not given),"inconclusive: 89.1 µM [inhibitor, single point]"
3,CC(C)CNC(=O)C1(CCO)CCN(c2ncccn2)C1 (stereo not given),"inconclusive: 89.1 µM [inhibitor, single point]"
4,Cc1ccsc1CN1CCCC(O)(CN(C)C)C1 (stereo not given),"inconclusive: 89.1 µM [inhibitor, single point]"
5,O=C(CCC1CCN(C(=O)c2ccccc2F)CC1)Nc1cccc(Cl)c1,active: 12.6 µM
6,Cc1cnc(C)c(N2CCN(C(=O)CCCc3c[nH]c4ccccc34)CC2)n1,"inconclusive: 44.7 µM [inhibitor, partial curve, poor fit]"
7,COCC(=O)N1CCC2(C1)C(=O)N(CCc1ccccc1)c1ccccc12 (stereo not given),inactive
8,Cn1cccc1C(=O)NC1CCCN(c2cc(-c3ccc(F)cc3)[nH]n2)C1 (stereo not given),"inconclusive: 44.7 µM [inhibitor, partial curve, poor fit]"
9,COc1ccc2c(c1)CN(CC=C(C)C)C(=O)CCN2CC(O)Cc1ccccc1 (stereo not given),"inconclusive: 70.8 µM [inhibitor, partial curve, poor fit]"
10,CCCNC(=O)CN1C(=O)NC2(CCC(C(C)(C)C)CC2)C1=O (stereo not given),inactive
11,COCCN(CC1CCCO1)c1nc(CCN)nc2ccccc12 (stereo not given),"inconclusive: 28.2 µM [inhibitor, partial curve, poor fit]"
12,Cn1ccnc1-c1ccc(N2CCCC(CO)(Cc3cccc(Cl)c3)C2)nn1 (stereo not given),"inconclusive: 35.5 µM [inhibitor, full curve, poor fit]"
13,CCC(C)NC(=O)CC1Sc2ncccc2N(CC(C)C)C1=O (stereo not given),"inconclusive: 89.1 µM [inhibitor, single point]"
14,Cc1cc2cc(C(=O)N3CCN(c4nc5ccccc5s4)CC3)ccc2o1,"inconclusive: 89.1 µM [inhibitor, single point]"
15,O=C(NCC1CC1)c1ccc2nnc(C3CC3)n2c1,inactive
16,O=C(NCc1cccc(Br)c1)C1CCN(c2cnc3nccnc3c2)CC1,"inconclusive: 44.7 µM [inhibitor, partial curve, poor fit]"
17,Cc1noc([C@@H]2CC(F)(F)CN2S(=O)(=O)c2cn(C)cn2)n1,inactive
18,Cc1nc(-c2cccc(Cl)c2)n(Cc2ccc(C#N)cc2)c(=O)c1CCO,"inconclusive: 50.1 µM [inhibitor, partial curve, poor fit]"
19,COc1ccc(C(=O)NC2CCN(C(=O)c3ccc(-c4cccs4)cc3)CC2)cc1,"inconclusive: 79.4 µM [inhibitor, partial curve]"
20,CN1CCCCCC(O)c2cc(C(=O)NCc3cc(F)cc(F)c3)ccc21 (stereo not given),"inconclusive: 56.2 µM [inhibitor, partial curve, poor fit]"
21,COc1ccc2[nH]c(C(=O)N3CCC4(CC3)CC(c3nc(C)no3)N(C)C4)cc2c1 (stereo not given),"inconclusive: 35.5 µM [inhibitor, single point]"
22,COCc1cc(=O)n(CC(=O)NCc2cccc(OC)c2)c(N2CCOCC2)n1,inactive
